The densities may have been worked out from excess volumes.
Test: xn = mol fraction of the nth substance listed
Settings: 101.3 kPa

CCCCC[P+](CC)(CC)CC.O=S(=O)([N-]S(=O)(=O)C(F)(F)F)C(F)(F)F + CCCCC[N+](CC)(CC)CC.O=S(=O)([N-]S(=O)(=O)C(F)(F)F)C(F)(F)F
x2 = 0
Settings	mass density [kg/m3]
288.15 K	1310
293.15 K	1306
298.15 K	1302
303.15 K	1298
308.15 K	1294
313.15 K	1290
318.15 K	1285
328.15 K	1277
333.15 K	1273
338.15 K	1269
343.15 K	1265
348.15 K	1260
353.15 K	1256

CCCCC[N+](CC)(CC)CC.O=S(=O)([N-]S(=O)(=O)C(F)(F)F)C(F)(F)F + CCCCC[P+](CC)(CC)CC.O=S(=O)([N-]S(=O)(=O)C(F)(F)F)C(F)(F)F
mass density [kg/m3]
Settings	x1 = 0.2	x1 = 0.4	x1 = 0.6	x1 = 0.8	x1 = 1
283.15 K	1316	1318	1319	1321	1324
288.15 K	1312	1314	1315	1317	1319
293.15 K	1308	1309	1311	1313	1315
298.15 K	1304	1305	–	1309	1311
303.15 K	1300	1301	1303	1305	–
308.15 K	1295	1297	1298	1301	1302
313.15 K	1291	1293	1294	1296	1298
318.15 K	–	1288	1290	1292	1294
323.15 K	1283	1284	1286	1288	1290
328.15 K	1279	1280	1282	1284	1286
333.15 K	1274	1276	1278	1280	1282
338.15 K	1270	1272	–	1276	1278
343.15 K	1266	1268	1269	1272	–
348.15 K	1262	1264	1265	–	1269
353.15 K	–	1260	1261	1263	–

CCC[N+](C)(C)C.O=S(=O)([N-]S(=O)(=O)C(F)(F)F)C(F)(F)F + CCC[N+]1(C)CCCC1.O=S(=O)([N-]S(=O)(=O)C(F)(F)F)C(F)(F)F
mass density [kg/m3]
Settings	x1 = 0.2	x1 = 0.4	x1 = 0.6	x1 = 0.8	x1 = 1
283.15 K	1440	–	–	1440	–
288.15 K	1435	1435	–	1436	–
293.15 K	1431	–	1431	1431	1432
298.15 K	1426	1426	1427	1427	1427
303.15 K	1422	1422	1422	–	1423
308.15 K	–	1417	–	1418	1418
313.15 K	1413	1413	–	1414	1414
318.15 K	1409	1408	1409	–	1409
323.15 K	1404	1404	1404	–	–
328.15 K	–	–	1400	–	1400
333.15 K	–	–	–	1396	–
338.15 K	1391	1391	1391	1391	1391
343.15 K	1387	–	1387	1387	1387
348.15 K	1382	–	1382	1382	1383
353.15 K	–	1378	–	1378	1378

Reference: a compilation of properties of binary mixtures (doi:10.1021/acs.jced.8b00334)
